Data taken from the RNAGym collection of RNA variant scans (doi:10.1093/nar/gkz1192).
The source gives no read counts; variants with many changes may rest on few reads.

B1: CPEB3 Ribozyme (parent)
chain: UAACAGGGGGCCACAGCAGAAGCGUUCACGUCGCAGCCCCUGUCAGAUUCUGGUGAAUCUGCGAAUUCUGCUGUAUAUCUC

Variants of: B1
Test: self-cleavage, relative activity (ratio to wild type); higher = more cleavage; in vitro, sequencing
In short: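 Barcoded CPEB3 ribozyme mutants, produced by rounds of error-prone PCR, self-cleaved while being transcribed with T7 RNA polymerase for 5 hours at 37°C and during a subsequent 15 min DNase I step before EDTA was added. Sequencing of template-switched cDNA on Illumina gave cleaved and total reads, and DNA sequencing assigned barcodes to variants. Each variant's relative activity is its cleaved/total read fraction divided by the unmutated ribozyme's fraction, averaged across three batches. A variant needed a minimum of 5 reads.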

Variant | self-cleavage
A5G A28G C29G | 0.09
A5G A28G G30A | 0.11
A5G A28G U31A A64G | 0.04
A5G A28G U31C U41C | 0.34
A5G A28G U41A U76A | 0.69
A5G A28G U41C | 0.41
A5G A28G U43A A57G C62A | 0.07
A5G A28G U43A U54C G55U | 0.57
A5G A28G U43C C44A U67C | 0.1
A5G A28G U43C U60A C79U | 0.13
A5G A28G U48C U76A A77U | 0.26
A5G A28G U49C A56G | 0.43
A5G A28G U49C A57U | 0.13
A5G A28G U58A C59A | 0.1
A5G A28G U58C | 0.52
A5G A28G U58C C79A | 0.18
A5G A28G U60C | 0.16
A5G A28G U69C | 0.08
A5G A28G U69C U72C | 0.17
A5G A28G U78C | 0.44
A5G A28U A35U G53C A56G U60A | 0.12
A5G A28U A47G A57G U69C A77U | 0.1
A5G A28U A56G | 0.23
A5G A28U A64U U67C U69C | 0.31

Variant | self-cleavage
A5G A28U C40U U58C U66C A77G | 0.17
A5G A28U G33U U49C | 0.23
A5G A28U U31C U49G U66C | 0.05
A5G A28U U41A | 0.34
A5G A28U U41A U72C U78C | 0.43
A5G A28U U41C | 0.35
A5G A28U U41C U51A | 0.27
A5G A28U U49C U78C | 0.29
A5G A35C A57U | 0.35
A5G A35C U43C U60C U78C | 0.06
A5G A35C U48C A64G U80G | 0.17
A5G A35G A45U | 0.38
A5G A35G A64C | 0.34
A5G A35G A64G U67C U80A | 0.28
A5G A35G C37A A64G C81A | 0.72
A5G A35G C37A A75G | 0.44
A5G A35G G36C U60A | 0.76
A5G A35G G55A | 0.77
A5G A35G U41C A65G | 0.44
A5G A35G U49G U60A U66A U72C | 0.2
A5G A35G U54C U60C | 0.39
A5G A35G U60C A64G U74A A75G | 0.36
A5G A35G U66C U74C | 0.97
A5G A35G U66C U74C U80C | 1.05

Variant | self-cleavage
A5G A35G U78C | 1.15
A5G A35U A45C U78C | 0.28
A5G A35U C37A U43C A47G A56G | 0.32
A5G A35U G63A A64U U66C U67C U78C | 0.07
A5G A35U U41A A47G U51C G61A U72C | 0.12
A5G A35U U48C | 0.62
A5G A35U U49A A56G U66A | 0
A5G A35U U49C U80A | 0.2
A5G A35U U58A U66C | 0.05
A5G A35U U60C A64G | 0.18
A5G A35U U78A | 0.35
A5G A45C U67A U72G | 0.08
A5G A45G A47G C50G U67C | 0.06
A5G A45G A47U U58A U60C U80C | 0.5
A5G A45G A56G | 0.07
A5G A45G A56G A64G U78C | 0.54
A5G A45G A56G U58A | 0.5
A5G A45G A56U U78C | 0.21
A5G A45G A75G | 0.52
A5G A45G U48C U51C | 0.43
A5G A45G U49A A57G U69C | 0.29
A5G A45G U49C U69G | 0.07
A5G A45G U51G U69C | 0.26
A5G A45G U58A U76C U78G | 0.36

Variant | self-cleavage
A5G A45G U60C | 0.63
A5G A45G U80A | 0.95
A5G A45U A77G C81U | 0
A5G A45U G63A U67C | 0.22
A5G A45U U49C A65U | 0.21
A5G A45U U49C G55A U58C C68A | 0.04
A5G A45U U51A C62A U69C U72A U74A | 0.07
A5G A45U U58C | 0.26
A5G A45U U60A U67A | 0.18
A5G A47C U51C | 0.12
A5G A47G A57C | 0.11
A5G A47G U54C G63U | 0.4
A5G A47G U60A | 0.32
A5G A47G U60A U72A U80C | 0.13
A5G A47G U66A | 0.59
A5G A47G U72A A75G U78A | 0.68
A5G A47G U74A | 1.18
A5G A47U A56U A64G | 0.1
A5G A47U A56U U58C U80C | 0.05
A5G A47U U48C A65G U80C | 0.16
A5G A47U U48C C71A U78A | 0.05
A5G A47U U48C U67C U69A | 0.24
A5G A56G A64U | 0.1
A5G A56G G70A U80C | 0.32

Variant | self-cleavage
A5G A56G U58C | 0.33
A5G A56G U60A U78C | 0.24
A5G A56G U60C A65U U80C | 0.16
A5G A56G U69C U72C | 0.24
A5G A56U A65G | 0.23
A5G A56U U60A U69C U78A | 0.12
A5G A56U U60C U80C | 0.05
A5G A57G A64G U72G | 0.32
A5G A57G C62G U67C | 0.25
A5G A57G U60C | 0.43
A5G A57G U60C A64G | 0.11
A5G A57G U72C | 0.75
A5G A57G U80A | 0.9
A5G A57U A64G A65G | 0.19
A5G A64C A77G | 0.12
A5G A64G C68G U78A | 0.13
A5G A64G U72C | 0.75
A5G A64G U80A | 0.48
A5G A65G A75U U78C | 0.19
A5G A65U C68A | 0.17
A5G A77G U78A | 0.74
A5G C11A A15G U25C A56G | 0.07
A5G C11A A35U U74C | 0.31
A5G C11A A57U | 0.24

Variant | self-cleavage
A5G C11A C23U A56G | 0.06
A5G C11A U43C A64U | 0.1
A5G C11G A15U A57G U78A | 0.14
A5G C11G A18G A28U | 0.38
A5G C11G A20U C23G U49A A56G | 0.05
A5G C11G A21G U26G U60C | 0.09
A5G C11G A75G | 0.58
A5G C11G U41A A65U | 0.07
A5G C11G U43C G73U | 0.34
A5G C11G U51C A57G A65U | 0.09
A5G C11U A15U A47G U72C | 0.14
A5G C11U G24A U25A A77G | 0.08
A5G C11U U51C G61A U74C | 0.14
A5G C11U U72C | 0.25
A5G C12A A13G U26G | 0.32
A5G C12A A45U A65G | 0.08
A5G C12A C23U A28G | 0.06
A5G C12A C40A A45U G70C U74C | 0.13
A5G C12G A35U U51C U58A U69C | 0.07
A5G C12G U25C U69A | 0.26
A5G C12G U31A U41C G73C U80C | 0.33
A5G C12G U58C A65G | 0.06
A5G C12U A15C G30A A57G U78C | 0.07
A5G C12U A15G C17U A56U | 0.2

Variant | self-cleavage
A5G C12U A15U C38U U51G | 0.8
A5G C12U A18G A21U U78C | 0.09
A5G C12U A45G U69C | 0.42
A5G C12U G24U U26C A45U U54C U67A | 0
A5G C12U G33A U43C A45U A56G | 0.06
A5G C12U U25C | 0.24
A5G C12U U25C U54A | 0.32
A5G C12U U74A | 1.11
A5G C14A A15G A56G | 0.26
A5G C14A A15G U60C A77U | 0.13
A5G C14A A21G U49C U69C U72A U74A | 0.19
A5G C14A A47U | 0.48
A5G C14A C27G A45G | 0.33
A5G C14G A35U U60A | 0.27
A5G C14G A65U | 0.35
A5G C14G G24A U31A A56U U72C | 0.07
A5G C14G U41C U51C U54A U74C | 0.32
A5G C14G U43C U60C U66C | 0.31
A5G C14U A15U G52U | 0.63
A5G C14U A18G A20G U26C U41C C81A | 0.16
A5G C14U C29U A56G U72G | 0.09
A5G C14U U25G A35U | 0.11
A5G C14U U41C U54C | 0.69
